# Inconclusive results, whose numbers are uncertain, are shown with a selection of clear calls. For some of these results: Potencies of inconclusive entries are left out as doubtful fits. Calls of active or inactive are those of the source. Unless noted, the call rests on the fitted dose curve; in most records, active means well fitted curve in the direction sought with a large enough effect in the repeat runs; inconclusive means weak or mixed curves; inactive means no such curve, though single readings can be large; an effect the other way counts as inactive or inconclusive.
# Key:
# [1] = qHTS RealTime-Glo MT Cell Viability Assay in HepG2 cells - 32 hour (AID 1224877); further: nearly all actives have a fitted effect of over 55% in size; further: potency means the concentration at half of the fitted maximal effect
# Procedure, shortened: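 Real-time, nonlytic viability: 600 HepG2 cells/well mixed with NanoLuc enzyme plus prosubstrate; 5 h settle, compound (DMSO) added by pintool; luminescence monitored over 40 h at 37 C.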
# [2] = qHTS RealTime-Glo MT Cell Viability Assay in HEK293 cells - 0 hour (AID 1224880); further: nearly all actives have a fitted effect of over 45% in size; further: potency means the concentration at half of the fitted maximal effect; on activity change, negative = cytotoxicity: top concentration of the series differs between compounds; on the % scale 0 is the no-effect control and ±100 the full control effect
# Procedure, shortened: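 600 HEK293 cells per well, dispensed already mixed with RealTime-Glo MT reagents. Compound dosing came 5 h later. The same wells were read for luminescence at 0, 8, 16, 24, 32 and 40 h of exposure at 37 C.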
# [3] = qHTS assay to identify small molecule agonists of the sonic hedgehog signaling (Shh) pathway - cell viability counter screen (AID 1259366); further: on the % scale 0 is the no-effect control and ±100 the full control effect; nearly all actives have a fitted effect of over 50% in size
# Procedure, shortened: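 Viability measured fluorometrically (CellTiter-Fluor, 1hr, 37C) in 3T3 Gli1-Luc reporter cells after 23hr compound exposure within a 24hr incubation at 37C/5% CO2.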
# [4] = A CellTox Green Cytotoxicity Assay to monitor cytotoxicity in HEK293 cells - 24 hour (AID 1224875); further: potency means the concentration at half of the fitted maximal effect; nearly all actives have a fitted effect of over 45% in size
# Procedure, shortened: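 Dead-cell fluorescence measured kinetically: asymmetric cyanine dye, HEK293, 600 cells/well, 5 h settle, 23 nL cpd/DMSO, 37 C, reads 0–40 h every 8 h.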
# [5] = qHTS assay for small molecules that induce genotoxicity in human embryonic kidney cells expressing luciferase-tagged ATAD5 - cell viability (AID 651634; calls by dose curve; further: on the % scale 0 is the no-effect control and ±100 the full control effect; nearly all actives have a fitted effect of over 25% in size)
# Procedure, shortened: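 After 15.5 hr incubation with compound at 37C, 5% CO2, HEK293T ATAD5-luciferase cells received CellTiter-Fluor reagent; fluorescence intensity was quantified following 30 min at 37C.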
# [6] = qHTS assay to identify small molecule agonists of the peroxisome proliferator-activated receptor delta (PPARd) signaling pathway - cell viability counter screen (AID 743211); details: PPARd-bla HEK293H viability, CellTiter-Glo luminescence, 17 h; activity change, negative = cytotoxicity: at 62.6 µM (top of the series) unless noted; further: nearly all actives have a fitted effect of over 55% in size; further: potency means the concentration at half of the fitted maximal effect
# Procedure, shortened: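 Viability of GeneBLAzer PPARd UAS-bla HEK293H cells was assessed after 17 h compound incubation at 37C, using CellTiter-Glo reagent added after the reporter read and luminescence recorded 30 min later.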
# [7] = target: Peroxisome proliferator-activated receptor delta (Homo sapiens) (UniProt Q03181); test: qHTS assay to identify small molecule agonists of the peroxisome proliferator-activated receptor delta (PPARd) signaling pathway (AID 743212; calls by dose curve;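 further: HEK293H cells with PPARd UAS beta-lactamase reporter GeneBLAzer system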; further: potency means the concentration at half of the fitted maximal effect; on activation: on the % scale 0 is the no-effect control and ±100 the full control effect); details: HEK293H PPARd-UAS-bla, beta-lactamase FRET ratio, 17 h; activation: at 62.6 µM (top of the series) unless noted
# UniProt Q03181, sequence (Q03181 whole entry, looked up): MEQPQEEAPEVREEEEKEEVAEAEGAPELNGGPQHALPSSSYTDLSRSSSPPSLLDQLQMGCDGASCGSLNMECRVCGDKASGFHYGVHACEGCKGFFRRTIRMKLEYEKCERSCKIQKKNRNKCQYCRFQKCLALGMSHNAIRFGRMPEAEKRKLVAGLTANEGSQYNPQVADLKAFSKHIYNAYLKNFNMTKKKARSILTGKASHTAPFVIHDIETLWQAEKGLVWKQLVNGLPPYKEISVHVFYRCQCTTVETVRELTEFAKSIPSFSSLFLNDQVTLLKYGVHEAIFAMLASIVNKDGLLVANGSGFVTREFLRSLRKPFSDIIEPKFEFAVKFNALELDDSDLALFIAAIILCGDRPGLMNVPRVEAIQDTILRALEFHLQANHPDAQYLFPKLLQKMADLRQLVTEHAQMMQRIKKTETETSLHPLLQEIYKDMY
# Procedure, shortened: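 Beta-lactamase reporter read by fluorescence (LiveBLAzer B/G FRET, 2 h, room temperature). Test agents, in DMSO, incubated at 37 C with PPARd-bla HEK293H cells.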
# [8] = qHTS assay to identify small molecule antagonists of the androgen receptor (AR) signaling pathway using the MDA cell line in the presence of 0.5 nM R1881 - cell viability counter screen (AID 1259242); further: on the % scale 0 is the no-effect control and ±100 the full control effect; nearly all actives have a fitted effect of over 45% in size
# Procedure, shortened: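 qHTS format. MDA-kb2 (MMTV-luc, AR/GR responsive) + cpd + 0.5 nM R1881 final, 16 hr 37C/0% CO2 → CellTiter-Fluor 30 min → fluorescence intensity.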
# [9] = qHTS assay to identify aromatase inhibitors - cell viability counter screen (AID 743084); details: MCF-7 aro ERE viability, CellTiter-Fluor, 24 h; activity change, negative = cytotoxicity: at 70.3 µM (top of the series) unless noted;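 further: cells stimulated with testosterone during compound exposure; nearly all actives have a fitted effect of over 55% in size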; further: potency means the concentration at half of the fitted maximal effect; on activity change, negative = cytotoxicity: on the % scale 0 is the no-effect control and ±100 the full control effect
# [10] = Caspase-3/7 induction in HepG2 cells by small molecules, qHTS assay (AID 1346978); further: on the % scale 0 is the no-effect control and ±100 the full control effect; nearly all actives have a fitted effect of over 15% in size
# Procedure, shortened: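 Wild-type HepG2 cells (2,000/well) were settled 5 h at 37 C, 5% CO2, then exposed to compounds in DMSO for 17 h. Caspase-3/7 activity was read by luminescence 30 min after adding Caspase-Glo 3/7 reagent at room temperature.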
# [11] = qHTS assay for small molecule agonists of the p53 signaling pathway - cell viability (AID 651633; calls by dose curve;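 further: p53RE-bla HCT reporter cells with a stable beta-lactamase p53 reporter; on the % scale 0 is the no-effect control and ±100 the full control effect; nearly all actives have a fitted effect of over 30% in size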)
# Procedure, shortened: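 p53RE-bla cells, seeded at 4,000 per well and rested 5 h at 37 C/5% CO2, received compounds in DMSO for 16 h at 37 C. CellTiter-Glo was then added, and luminescence was read after 30 min at room temperature to gauge cytotoxicity.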
# [12] = qHTS assay to identify small molecule agonists of the TGF-beta/Smad signaling pathway - cell viability counter screen (AID 1346829); further: top concentration of the series differs between compounds; on the % scale 0 is the no-effect control and ±100 the full control effect; nearly all actives have a fitted effect of over 45% in size
# Procedure, shortened: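 Here the cytotoxicity of library compounds is measured in SBE-bla HEK 293T cells treated for 5 hr, using CellTiter-Glo added to wells already read for the beta-lactamase reporter.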
# [13] = target: Androgen receptor (Homo sapiens) (UniProt P10275); test: qHTS assay to identify small molecule antagonists of the androgen receptor (AR) signaling pathway (AID 743035; active means well fitted inhibition curve with a large enough effect in the signal ratio in the repeat runs, not every such curve was filed as active; inconclusive means weak or mixed curves, or effect the other way; inactive means no such curve, though single readings can be large or run the other way; the % refers to the signal ratio; further: potency means the concentration at half of the fitted maximal effect; on activity change, negative = inhibition: on the % scale 0 is the no-effect control and ±100 the full control effect); details: HEK293 AR-UAS-bla, R1881-stimulated, beta-lactamase FRET, 16 h; activity change, negative = inhibition: at 58.5 µM (top of the series) unless noted
# UniProt P10275, sequence (P10275 whole entry, looked up): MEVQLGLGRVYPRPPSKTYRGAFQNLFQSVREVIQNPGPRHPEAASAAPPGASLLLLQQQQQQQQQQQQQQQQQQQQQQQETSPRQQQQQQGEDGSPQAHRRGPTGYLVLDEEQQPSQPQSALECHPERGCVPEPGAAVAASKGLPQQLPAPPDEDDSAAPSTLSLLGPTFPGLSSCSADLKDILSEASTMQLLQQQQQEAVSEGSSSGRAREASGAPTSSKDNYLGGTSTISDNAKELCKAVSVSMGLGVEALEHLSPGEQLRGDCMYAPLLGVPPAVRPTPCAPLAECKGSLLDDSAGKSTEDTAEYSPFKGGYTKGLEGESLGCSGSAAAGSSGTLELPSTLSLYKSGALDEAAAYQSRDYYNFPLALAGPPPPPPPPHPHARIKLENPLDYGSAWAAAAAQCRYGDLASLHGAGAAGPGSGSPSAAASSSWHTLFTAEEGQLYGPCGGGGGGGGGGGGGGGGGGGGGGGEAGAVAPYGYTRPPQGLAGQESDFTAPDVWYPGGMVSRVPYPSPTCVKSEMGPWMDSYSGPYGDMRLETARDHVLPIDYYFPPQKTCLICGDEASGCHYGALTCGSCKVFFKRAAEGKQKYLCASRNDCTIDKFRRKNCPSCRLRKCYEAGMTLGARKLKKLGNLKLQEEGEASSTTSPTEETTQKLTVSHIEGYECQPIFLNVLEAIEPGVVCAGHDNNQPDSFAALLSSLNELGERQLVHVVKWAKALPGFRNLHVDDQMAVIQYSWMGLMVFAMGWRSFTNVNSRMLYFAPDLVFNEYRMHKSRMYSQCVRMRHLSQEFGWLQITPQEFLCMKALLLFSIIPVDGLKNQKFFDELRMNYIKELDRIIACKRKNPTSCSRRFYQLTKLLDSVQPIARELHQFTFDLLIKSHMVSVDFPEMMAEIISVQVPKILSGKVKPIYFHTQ
# Procedure, shortened: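 Quantitative HTS of the Tox21 10K library used HEK293 AR-UAS-bla cells stimulated with R1881 alongside compound for 16 h at 37C, followed by beta-lactamase FRET detection (LiveBLAzer B/G, 2 h, RT).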
# [14] = qHTS assay to identify small molecule antagonists of the estrogen receptor alpha (ER-alpha) signaling pathway using the BG1 cell line in the presence of 0.1 nM 17-beta-estradiol - cell viability counter screen (AID 1259241); further: on the % scale 0 is the no-effect control and ±100 the full control effect; nearly all actives have a fitted effect of over 40% in size
# Procedure, shortened: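 The cell line endogenously expresses full-length ER-alpha and carries four EREs driving luciferase. Cells are cultured 5 days hormone-free, treated 22 hr with compounds and 0.1 nM estradiol, then viability is read by fluorescence.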
# [15] = target: Androgen receptor (Homo sapiens) (UniProt P10275); test: qHTS assay to identify small molecule agonists of the androgen receptor (AR) signaling pathway (AID 743036; active means well fitted activation curve with a large enough effect in the signal ratio in the repeat runs, with a control signal flat, not every such curve was filed as active; inconclusive means weak or mixed curves, or effect the other way; inactive means no such curve, though single readings can be large or run the other way; the % refers to the signal ratio; further: potency means the concentration at half of the fitted maximal effect); details: HEK293 AR-UAS-bla GripTite, beta-lactamase FRET ratio, 16 h; activation: at 62.4 µM (top of the series) unless noted
# Procedure, shortened: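 Reporter line: GeneBLAzer AR-UAS-bla-GripTite (HEK293). Steps: plate cells, 4 h rest, add compounds, 16 h at 37C, add LiveBLAzer B/G substrate, 2 h at RT, read fluorescence.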
# [16] = target: Aryl hydrocarbon receptor (Homo sapiens) (UniProt P35869); test: qHTS assay to identify small molecule that activate the aryl hydrocarbon receptor (AhR) signaling pathway (AID 743085); further: nearly all actives have a fitted effect of over 15% in size; further: potency means the concentration at half of the fitted maximal effect
# UniProt P35869, sequence (P35869 whole entry, looked up): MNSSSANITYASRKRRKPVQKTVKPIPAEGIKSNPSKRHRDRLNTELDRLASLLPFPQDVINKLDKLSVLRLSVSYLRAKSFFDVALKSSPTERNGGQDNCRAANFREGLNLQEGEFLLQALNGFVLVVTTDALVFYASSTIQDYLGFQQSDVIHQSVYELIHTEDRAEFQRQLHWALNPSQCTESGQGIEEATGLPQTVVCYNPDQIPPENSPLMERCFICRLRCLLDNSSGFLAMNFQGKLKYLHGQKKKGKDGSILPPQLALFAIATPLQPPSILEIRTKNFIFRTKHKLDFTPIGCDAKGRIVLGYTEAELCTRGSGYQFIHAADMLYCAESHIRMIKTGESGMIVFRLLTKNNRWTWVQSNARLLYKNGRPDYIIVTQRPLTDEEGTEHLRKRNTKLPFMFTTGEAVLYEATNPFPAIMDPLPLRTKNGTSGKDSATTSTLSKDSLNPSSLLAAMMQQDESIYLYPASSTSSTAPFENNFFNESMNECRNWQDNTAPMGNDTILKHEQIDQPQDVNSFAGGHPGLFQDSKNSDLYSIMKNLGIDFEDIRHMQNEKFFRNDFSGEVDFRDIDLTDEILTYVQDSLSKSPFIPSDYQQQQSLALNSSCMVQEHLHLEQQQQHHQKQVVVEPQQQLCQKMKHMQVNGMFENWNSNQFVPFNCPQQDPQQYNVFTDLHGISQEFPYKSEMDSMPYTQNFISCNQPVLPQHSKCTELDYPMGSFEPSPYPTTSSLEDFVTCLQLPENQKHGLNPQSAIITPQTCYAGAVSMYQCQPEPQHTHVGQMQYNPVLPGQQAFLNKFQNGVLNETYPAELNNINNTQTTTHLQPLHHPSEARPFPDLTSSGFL
# Procedure, shortened: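 Steps: seed HepG2-AhR-luc cells; allow 5 h at 37C; pin-transfer test compound or vehicle; incubate 24 h at 37C; add viability dye (30 min, 37C) and read fluorescence; add luciferase substrate (30 min, RT) and read luminescence.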
# [17] = target: Androgen receptor (Homo sapiens) (UniProt P10275); test: qHTS assay to identify small molecule antagonists of the androgen receptor (AR) signaling pathway using the MDA cell line in the presence of 0.5 nM R1881 (AID 1259243); further: nearly all actives have a fitted effect of over 50% in size; further: potency means the concentration at half of the fitted maximal effect
# Procedure, shortened: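 Antagonist mode quantitative HTS in MDA-kb2 MMTV-luciferase cells, agonist R1881 at 0.5 nM final, 16 hr exposure at 37C and 0% CO2, luminescent detection.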
# [18] = qHTS assay to identify small molecule agonists of the estrogen receptor alpha (ER-alpha) signaling pathway in the presence of an antagonist - cell viability counter screen (AID 1259386);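 further: cells exposed to compounds for 22 h at 37 °C before the viability read; nearly all actives have a fitted effect of over 30% in size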; further: potency means the concentration at half of the fitted maximal effect
# Procedure, shortened: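 In this counter screen, compound effects on VM7Luc4E2 viability were tested in the presence of the antagonist ICI-182,780 at 10.0nM final. Compounds were dosed at 15 concentrations, exposure lasted 22hr, and the CellTiter-Fluor signal was read.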
# [19] = qHTS RealTime-Glo MT Cell Viability Assay in HepG2 cells - 8 hour (AID 1224873); further: on the % scale 0 is the no-effect control and ±100 the full control effect; nearly all actives have a fitted effect of over 55% in size
# Procedure, shortened: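 HepG2 cells mixed with RealTime-Glo MT reagents (NanoLuc plus cell-permeant prosubstrate) were seeded at 600 cells/well, incubated 5 h at 37 C/5% CO2, then pinned with compounds in DMSO; nonlytic luminescence tracked viability during 40 h treatment.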
# Tags describe the fitted curve by direction and shape or compound fluorescence and quenching.
smiles,measurement,setting,value
COc1ccc2cc1Oc1cc3c(cc1OC)CC[N+](C)(C)[C@H]3Cc1ccc(cc1)Oc1c(OC)c(OC)cc3c1[C@@H](C2)[N+](C)(C)CC3,Potency,[1],active: 21.3 µM
same,Potency,[2],inactive
Cc1ccccc1OCC1CO1 (stereo unspecified),Potency,[3],inactive
O=C(O)c1ccccc1S,Potency,[4],"inconclusive [activator, single point]"
CC1(C)C(=O)N(Cl)C(=O)N1Cl,Potency,[5],inactive
same,Potency,[6],"inconclusive [rising, full curve, poor fit]"
N#Cc1ccc(C2CCCc3cncn32)cc1 (stereo unspecified),Potency,[7],inactive
same,Potency,[8],inactive
NS(=O)(=O)c1ccccc1OC(F)(F)F,Potency,[2],"inconclusive [rising, partial curve]"
CC(CN1CC(=O)NC(=O)C1)N1CC(=O)NC(=O)C1 (stereo unspecified),Potency,[9],"inconclusive [cytotoxic, partial curve]"
[K+],Potency,[2],"inconclusive [rising, partial curve, poor fit]"
O=S(O)CO,Potency,[10],inactive
Cc1occc(=O)c1OC(=O)C(C)C,Potency,[11],inactive
CC1=C(C=O)C(C)(C)CC=C1,Potency,[9],inactive
N#CC1(N)CCCCC1,Potency,[9],"inconclusive [cytotoxic, partial curve, poor fit]"
same,Potency,[1],inactive
same,Potency,[3],inactive
CCCCCCCCCCCCCCCCCCN(C)C,Potency,[4],"inconclusive [activator, partial curve, poor fit]"
same,Potency,[10],inactive
O=C1OC(=O)c2c(Cl)c(Cl)c(Cl)c(Cl)c21,Potency,[12],inactive
NCCc1ccn[nH]1,Potency,[13],inactive
CCN(CC)C(=O)c1cccc(C)c1,Potency,[14],inactive
CC1=CC(C)C(C=O)C(C)C1 (stereo unspecified),Potency,[10],inactive
O=C(O)COc1nn(Cc2ccccc2)c2ccccc12,Potency,[15],"inconclusive [partial curve, poor fit]"
same,Potency,[16],inactive
NC(=O)c1ccc([N+](=O)[O-])cc1Cl,Potency,[1],inactive
CCNC(=O)C1CC(C)CCC1C(C)C (stereo unspecified),Potency,[12],inactive
CCCCCCS,Potency,[17],inactive
Nc1cc([N+](=O)[O-])ccc1Cl,Potency,[17],"inconclusive [inhibitor, single point]"
COc1ccnc(CS(=O)c2nc3cc(OC(F)F)ccc3[nH]2)c1OC (stereo unspecified),Potency,[7],inactive
same,Potency,[14],inactive
CC/C=C(\C(=O)N[C@@H]1C(=O)N2C(C(=O)OCOC(=O)C(C)(C)C)=C(COC(N)=O)CS[C@H]12)c1csc(N)n1,Potency,[18],"inconclusive [cytotoxic, single point]"
CO[C@@]1(NC(=O)CSC[C@@H](N)C(=O)O)C(=O)N2C(C(=O)O)=C(CSc3nnnn3C)CS[C@@H]21,Potency,[13],"inconclusive [rising, single point]"
CCOC(=O)c1cccc(N)c1,Potency,[16],"inconclusive [activator, partial curve]"
CC1CN(c2cc3c(cc2F)c(=O)c(C(=O)O)cn3-c2ccc(F)cc2F)CCN1 (stereo unspecified),Potency,[16],inactive
Nc1cc(C(Cl)=C(Cl)Cl)c(S(N)(=O)=O)cc1S(N)(=O)=O,Potency,[6],inactive
Cc1nc2n(c(=O)c1CCN1CCC(c3noc4cc(F)ccc34)CC1)CCC[C@H]2O,"viability change, negative = cytotoxic",[19],inactive: -0.0945% [at 15.8 µM]
CCCCc1nc(Cl)c(CO)n1Cc1ccc(-c2ccccc2-c2nn[nH]n2)cc1,Potency,[2],"inconclusive [falling, single point]"
Cc1ccc(C(=O)O)cc1[N+](=O)[O-],Potency,[18],inactive
O=C(OCCN1CCOCC1)c1cccnc1Nc1cccc(C(F)(F)F)c1,Potency,[17],"inconclusive [inhibitor, partial curve]"
CCOc1ccc(NC(=O)OC(C)C)cc1OCC,activation,[7],inconclusive: 5.2%
same,Potency,[14],inactive
CCC(=O)OC/C=C(\C)CCC=C(C)C,Potency,[17],inactive
CCCCCCCCCCCCCCCCN(C)C,"activity change, negative = inhibition",[13],inactive: -9.68% [at 7.04 µM]
same,Potency,[7],"inconclusive [rising, full curve, poor fit]"
COc1ccc(Cc2cnc(N)nc2N)cc1OC,Potency,[15],inactive

# — PubChem BioAssay (Tox21)
